# Test results published in PubChem BioAssay AID1745853 (National Center for Advancing Translational Sciences (NCATS), 2022).
# Where “and” joins values, the source holds several entries; their conditions need not be identical. Equal entries are not always repeated. The list shows a part of the results. Further columns of the screen follow, without active or inactive calls.
# Tests used:
# Experiment in all cases: Primary Screen for Target Class Profiling of Small Molecule Inhibitors of Methyltransferases
# [1] = biological target: Glycine N-methyltransferase (Homo sapiens) (UniProt Q14749); details: purified enzyme, MTase-Glo SAH luminescence; measured here: GNMT inhibition; at 40 µM; stronger effect = lower value
# Outline: (§1)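 Each enzyme was assayed with SAM and its substrate. SAH formation detected by MTase-Glo luminescence; single-point 40 uM screen[…].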
# [2] = biological target: Guanidinoacetate N-methyltransferase (Homo sapiens) (UniProt Q14353); details: purified enzyme, MTase-Glo SAH luminescence; measured here: GAMT inhibition; at 40 µM; stronger effect = lower value
# Outline: as §1
# [3] = biological target: Histamine N-methyltransferase (Homo sapiens) (UniProt P50135); details: purified enzyme, MTase-Glo SAH luminescence; measured here: HNMT inhibition; at 40 µM; stronger effect = lower value
# Outline: as §1
# [4] = biological target: Nicotinamide N-methyltransferase (Homo sapiens) (UniProt P40261); details: purified enzyme, MTase-Glo SAH luminescence; measured here: NNMT inhibition; at 40 µM; stronger effect = lower value
# Outline: as §1
# [5] = biological target: Phenylethanolamine N-methyltransferase (Homo sapiens) (UniProt P11086); details: purified enzyme, MTase-Glo SAH luminescence; measured here: PNMT inhibition; at 40 µM; stronger effect = lower value
# Outline: as §1
# % is scaled to controls: 0 for no effect and ±100 for the full control effect.
Structure (SMILES),"activity change, negative = inhibition [1] [%]","activity change, negative = inhibition [2]","activity change, negative = inhibition [3] [%]","activity change, negative = inhibition [4]","activity change, negative = inhibition [5]"
CC1(C(=O)O)CCCC2(C)C3CCC4CC3(CCC12)CC4(O)CO (stereo not drawn),-5.25,-6.29%,-0.38,-15.9%,-14.3%
COc1ccc(Cl)cc1S(=O)(=O)Nc1ccc2[nH]c(=O)[nH]c2c1,-7.04,3.78%,-2.16,-1.28%,-17.9%
COc1cccc(CN2C[C@@H](CO)[C@H](NC(=O)C3CC3)C2)n1,-2.16,-1.47%,-0.563,-3.69%,-0.06%
CC1CCCC(NC(=O)C2(C)Cn3c(nc4ccccc43)C(=O)N2CCc2ccc(Cl)cc2)C1C (stereo not drawn),3.77,0%,3.42,6.69%,-3.6%
CC1(C(=O)NC2CCCCCCC2)Cn2c(cc3sccc32)C(=O)N1Cc1ccc(F)cc1 (stereo not drawn),-10.6,4.28%,-1.97,-11.6%,-4.88%
CS(=O)(=O)N1CCC(OC2CCN(C(=O)Nc3ccccc3C(F)(F)F)CC2)CC1,-0.178,-6.7%,2.05,-2.06%,1.72%
COc1ccc(CNC(=O)Cn2nc3n(Cc4ccc(F)cc4)c(=O)c4ccccc4n3c2=O)cc1,-0.745,4.88%,3.09,-3.69%,-1.18%
COc1ccc2cc1Nc1ccc(cc1)C[C@H](NCc1ccc3c(c1)CCO3)C(=O)N(C)[C@H](C(=O)NCCC(C)C)C2,-3.32,0.558%,0.986,-7.24%,-2.12%
O=C(CCn1ccc2cc(S(=O)(=O)N3CCCCC3)ccc21)NCC1CCCO1 (stereo not drawn),6.54,0.785%,4.92,8.46%,4.27%
NC(=O)c1c(OCc2c(F)cc(Br)cc2F)nsc1NC(=O)NCCCCN1CCCC1,-7.34,9.54%,-22.8,-18.5%,-0.75%
C=C1C(=O)O[C@@H]2CC(C)=C([C@@H](C)CCCOC(C)=O)[C@@H](O)[C@H]12,2.22,-0.412%,6.38,-8.28%,4.03%
CCCn1c(=O)c2ccc(C(=O)NC(C)CC)cc2n2c(SCC(=O)c3ccc(F)cc3)nnc12 (stereo not drawn),6.42,0%,12.6,5%,7.54%
COc1ccc(-c2cc3ncc(C)n3c(Nc3ncccc3C(N)=O)n2)cc1OC,-8.11,8.4%,1.73,-3.16%,8.3%
COc1ccc2c(c1)C(CN1CCN(c3ccc4oc(C(=O)O)cc4c3Cl)CC1)=CC(C)(C)CO2,-67.2,-6.35%,-12.9,-28.1%,-0.833%
CCOC(=O)[C@H](CCc1ccccc1)N[C@H]1CS[C@H](c2cccs2)CN(CC(=O)O)C1=O,–,-2.28%,–,-18.3%,-4.3%
O=C1NC(=O)/C(=C/c2ccc3nccnc3c2)S1,-7.94,4.14%,-1.9,-6.17%,5.69%
CCCn1c(=O)c2ccc(C(=O)NCC(C)C)cc2n2c(=O)n(CC(=O)c3ccc(C)cc3C)nc12,1.26,3.23%,4.86,-1.17%,-0.773%
O=C(O)Cc1c(-c2ccccc2)c2cc(Cl)ccc2[nH]c1=O,-9.16,0%,10.6,6.84%,1.87%
Cc1cccc(NC(=O)N2Cc3c(sc4c3CCCC4)-n3cccc3C2c2cc(F)cc(F)c2)c1 (stereo not drawn),-2.71,0%,7.77,6.55%,6.51%

Structure (SMILES),"activity change, negative = inhibition [1] [%]","activity change, negative = inhibition [2]","activity change, negative = inhibition [3] [%]","activity change, negative = inhibition [4]","activity change, negative = inhibition [5]"
CC(=O)Oc1ccc(C2Nc3ccc(C)cc3C3C=CCC32)c(OC(C)=O)c1 (stereo not drawn),-8.36,1.57%,-0.1,-0.874%,-11.2%
CCn1cc(CN2CCC(N3C(=O)C4(CCCCC4)C3c3ccncc3)CC2)cn1 (stereo not drawn),0.864,-2.25%,-8.18,-3.36%,-4.09%
COc1ccccc1CNC(=O)C1(C)Cn2nc(-c3ccccc3)cc2C(=O)N1c1ccc(C(C)C)cc1 (stereo not drawn),8.01,0.498%,11.2,14.6%,2.9%
COc1cc(C)c(-c2nc(Cn3cccn3)c(C)o2)cc1C,-2.62,0.427%,-0.065,-5.23%,-2.94%
CCNC(=O)N1CCC(N2C(=O)C3(CCCC3)C2c2ccccc2)CC1 (stereo not drawn),-0.817,3.69%,3.93,-5%,10.9%
OC[C@H]1O[C@@H](Oc2cc(O)cc(/C=C/c3ccc(O)cc3)c2)[C@H](O)[C@@H](O)[C@@H]1O,-3.32,1.88% and -5.12%,8.16,-13.2% and -17.8%,3.06% and -9.16%
O=C(Cn1c(=O)oc2cc(S(=O)(=O)NCc3ccccc3)ccc21)NC1CCCC1,-3.53,2.77%,2.9,2.67%,-6.92%
CCCn1c(=O)c2ccc(Cl)cc2n2c(SCC(=O)Nc3ccccc3OC)nnc12,-1.47,2.36%,-0.141,-2.96%,-1.35%
Cc1ccc(CCNC(=O)CCn2ccc3cc(S(=O)(=O)N4CCCCC4)ccc32)cc1,2.9,0%,4.64,4.65%,1.65%
Cc1nn(-c2ccccc2)c2c1C(C(C)C)N(C1CN([S+](=O)([O-])c3cccc(C(F)(F)F)c3)C1)C2=O (stereo not drawn),-4.27,-3.3%,-3.77,-8.79%,-29.5%
COc1ccc(-c2cc3nc4c(c(=O)n3[nH]2)CN(C(=O)c2ccc(C)nc2)CC4)cc1,-6.85,-3.3%,-3.67,-2.95%,-1.26%
CC1(C)CC[C@]2(C(=O)O[C@@H]3O[C@H](CO)[C@@H](O)[C@H](O)[C@H]3O)CC[C@]3(C)C(=CCC4[C@@]5(C)C[C@@H](O)[C@H](O)[C@@](C)(CO)C5[C@H](O)C[C@]43C)C2[C@@H]1O (stereo partly drawn),0,1.99%,4.67,-10.6%,4.13%
O=C(NCc1ccccc1)c1cnc2n1CCN(Cc1ccccc1)CC2,-1.67,-2.7%,-2.14,-3.75%,-0.872%
Cc1ccc(NC(=O)CSc2nnc3n(Cc4ccc(F)cc4)c(=O)c4ccccc4n23)cc1C,8.63,2.56%,14.7,-3.25%,8.65%
COc1ccc(CC(=O)N2CCCC3(Cc4ccccc4CN3C(=O)C3CCCC3)C2)cc1 (stereo not drawn),-8.09,-4.18%,-6.07,-15.4%,-10.7%
Cc1cc(C)n(Cc2ccc(C(=O)N3CC4CC(C3)[C@H]3CCCC(=O)N3C4)o2)n1 (stereo partly drawn),-3.03,-3.53%,-0.873,-4.46%,-4.6%
CN(C)C[C@@H]1CN(C2CCOCC2)C[C@H]1NC(=O)c1nccc2ccccc12,-4.51,-4.52%,-0.586,-7.38%,-2.82%
COc1ccc(C2CNC(=O)C2)cc1OC1CCCC1 (stereo not drawn),3.58,11.1%,3.69,-7.5%,1.22%
